According to patent US20260034244A1 (PANOLOS BIOSCIENCE, published 2026):

T1: PLGF (UniProt P49763-2 19-149, limits assumed)
T1 construct: also called placental growth factor
T1 sequence (looked up): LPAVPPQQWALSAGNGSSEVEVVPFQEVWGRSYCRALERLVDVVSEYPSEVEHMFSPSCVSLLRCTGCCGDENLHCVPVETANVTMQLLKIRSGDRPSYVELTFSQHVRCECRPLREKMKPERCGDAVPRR

T2: VEGF-A (UniProt P15692-4 27-191, limits assumed)
T2 construct: also called vascular endothelial growth factor A
T2 sequence (looked up): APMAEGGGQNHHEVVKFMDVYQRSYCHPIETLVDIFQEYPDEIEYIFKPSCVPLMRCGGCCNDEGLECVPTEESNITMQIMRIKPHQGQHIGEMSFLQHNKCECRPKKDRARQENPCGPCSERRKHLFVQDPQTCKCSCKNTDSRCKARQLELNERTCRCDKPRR

T3: VEGF-A (UniProt P15692-4 27-191, limits assumed)
T3 construct: Analyte at 40, 20, 10 nM; also called vascular endothelial growth factor A
T3 sequence (looked up): T2 sequence (looked up)

T4: PLGF (UniProt P49763-2 19-149, limits assumed)
T4 construct: also called placental growth factor
T4 sequence (looked up): T1 sequence (looked up)

B1: C108 (Fc fusion)
chain: EFGRPFVEMYSEIPEIIHMTEGRELVIPCRVTSPNITVTLKKFPLDTLIPDGKRIIWDSRKGFIISNATYKEIGLLTCEATVNGHLYKTNYLTHRQTNTIIDVQISTPRPVKLLRGHTLVLNCTATTPLNTRVQMTWSYPDEKNKRASVRRRIDQSNSHANIFYSVLTIDKMQNKDKGLYTCRVRSGPSFKSVNTSVHIYDGSSG[gap - human IgG1 Fc with changes]
notes: Based on C88; IgG1 Fc
B2: C88 (Fc fusion)
chain: EFGRPFVEMYSEIPEIIHMTEGRELVIPCRVTSPNITVTLKKFPLDTLIPDGKRIIWDSRKGFIISNATYKEIGLLTCEATVNGHLYKTNYLTHRQTNTIIDVQISTPRPVKLLRGHTLVLNCTATTPLNTRVQMTWSYPDEKNKRASVRRRIDQSNSHANIFYSVLTIDKMQNKDKGLYTCRVRSGPSFKSVNTSVHIYDKALE[gap - human IgG1 Fc]
notes: dimer only said as embodiment; also called VEGFR-wild type protein
B3: C111 (Fc fusion)
chain: EFGRPFVEMYSEIPEIIHMTEGRELVIPCRVTSPNITVTLKKFPLDTLIPDGKRIIWDSRKGFIISNATYKEIGLLTCEATVNGHLYKTNYLTHRQTNTIIDVQISTPRPVKLLRGHTLVLNCTATTPLNTRVQMTWSYPDEKNKRASVRRRIDQSNSHANIFYSVLTIDKMQNKDKGLYTCRVRSGPSFKSVNTSVHIYDEGSSGGSSGEPKS[gap - human IgG1 Fc and a few adjoining residues]
notes: Based on C88; IgG1 Fc
B4: C47 (Fc fusion)
chain: EFGRPFVEMYSEIPEIIHMTEGRELVIPCRVTSPNITVTLKKFPLDTLIPDGKRIIWDSRKGFIISNATYKEIGLLTCEATVNGHLYKTNYLTHRQTNTIIDVQISTPSPVCLLRGHTLVLNCTATTPLNTRVQMTWSYPDEKNKNASVRRRIDQSNSHANIFYSVLTIDKMQNKDKGLYTCRVRSGPSFKSVNTSVHIYDGCKVDKKV[gap - human IgG1 Fc with C220S H224Y (EU numbers)]
notes: Disulfide bond variant based on VEGF-Grab3
B5: C48 (Fc fusion)
chain: B4 chain with C112T, L114C, Y200C, C203S
notes: Disulfide bond variant based on VEGF-Grab3; L243C/Y329C
B6: C49 (Fc fusion)
chain: B4 chain with C112T, L114C, G202C, C203S
notes: as for B4
B7: C50 (Fc fusion)
chain: B4 chain with C112T, R115C, Y200C, C203S
notes: Disulfide bond variant based on VEGF-Grab3; R244C/Y329C
B8: C51 (Fc fusion)
chain: B4 chain with C112T, N174C, Y200C, C203S
notes: Disulfide bond variant based on VEGF-Grab3; N303C/Y329C
B9: C109 (Fc fusion)
chain: EFGRPFVEMYSEIPEIIHMTEGRELVIPCRVTSPNITVTLKKFPLDTLIPDGKRIIWDSRKGFIISNATYKEIGLLTCEATVNGHLYKTNYLTHRQTNTIIDVQISTPRPVKLLRGHTLVLNCTATTPLNTRVQMTWSYPDEKNKRASVRRRIDQSNSHANIFYSVLTIDKMQNKDKGLYTCRVRSGPSFKSVNTSVHIYDGSKVDKKV[gap - human IgG1 Fc with changes]
notes: Linker variant based on C88; control without disulfide bond
B10: C106 (Fc fusion)
chain: EFGRPFVEMYSEIPEIIHMTEGRELVIPCRVTSPNITVTLKKFPLDTLIPDGKRIIWDSRKGFIISNATYKEIGLLTCEATVNGHLYKTNYLTHRQTNTIIDVQISTPRPVELSVGETLVLNCTATTPANTRVQMTWSYPDEKNKRASVRRRIDQSNSHANIFYSVLTIDGMQNKDKGLYTCRVRSGPSFKSVNTSVHIYDLE[gap - human IgG1 Fc]
notes: Based on C88; K241E/L243S/R244V/H246E/L258A/K300G; IgG1 Fc
B11: C109 (Fc fusion)
chain: EFGRPFVEMYSEIPEIIHMTEGRELVIPCRVTSPNITVTLKKFPLDTLIPDGKRIIWDSRKGFIISNATYKEIGLLTCEATVNGHLYKTNYLTHRQTNTIIDVQISTPRPVKLLRGHTLVLNCTATTPLNTRVQMTWSYPDEKNKRASVRRRIDQSNSHANIFYSVLTIDKMQNKDKGLYTCRVRSGPSFKSVNTSVHIYDGSKVDKKV[gap - human IgG1 Fc with changes]
notes: Based on C88; IgG1 Fc

Assays:
PLGF [1] = target: T1, PLGF; test: BLI Octet RED96e, AHC capture
VEGF-A [2] = target: T2, VEGF-A; test: BLI Octet; fold increase vs C88
VEGF-A [3] = target: VEGF-A (UniProt P15692); test: cell-based or functional assay
VEGF-A [4] = target: T2, VEGF-A; test: BLI Octet RED96e, AHC capture
PLGF [5] = target: T1, PLGF; test: BLI Octet; fold increase vs C88
PLGF [6] = target: T1, PLGF; test: BLI Octet; fold increase vs C88; remark: listed apart in the source
VEGF-A [7] = target: T2, VEGF-A; test: BLI Octet; fold increase vs C88; remark: listed apart in the source
PLGF [8] = target: T1, PLGF; test: BLI Octet RED96e, AHC capture; remark: listed apart in the source
VEGF-A [9] = target: T2, VEGF-A; test: BLI Octet RED96e, AHC capture; remark: listed apart in the source
VEGF-A [10] = target: T3, VEGF-A; test: BLI (Octet), fusion captured on AHC sensor; fold increase vs VEGF-Grab3 (Panolos Bioscience)
PLGF [11] = target: T4, PLGF; test: as above
VEGF-A [12] = target: T3, VEGF-A; test: BLI (Octet), fusion captured on AHC sensor; fold increase vs VEGF-Grab3 (Samsung Biologics)
PLGF [13] = target: T4, PLGF; test: as above
VEGF-A [14] = target: T3, VEGF-A; test: BLI (Octet), fusion captured on AHC sensor; fold increase vs C88
PLGF [15] = target: T4, PLGF; test: BLI (Octet), fusion captured on AHC sensor
VEGF-A [16] = target: T3, VEGF-A; test: BLI (Octet), fusion captured on AHC sensor
PLGF [17] = target: T4, PLGF; test: BLI (Octet), fusion captured on AHC sensor; fold increase vs C88

Row | Binder | Kd (PLGF [1]) [nM] | koff (PLGF [1]) [s⁻¹] | kon (PLGF [1]) [M⁻¹ s⁻¹] | Fold (KD) (VEGF-A [2]) [fold] | Fold (kdis) (VEGF-A [2]) [fold] | Fold (kon) (VEGF-A [2]) [fold] | koff (VEGF-A [4]) [s⁻¹] | kon (VEGF-A [4]) [M⁻¹ s⁻¹] | Fold (KD) (VEGF-A [10]) [fold] | Fold (kdis) (VEGF-A [10]) [fold] | Fold (kon) (VEGF-A [10]) [fold] | Fold (KD) (PLGF [11]) [fold] | Fold (kdis) (PLGF [11]) [fold] | Fold (kon) (PLGF [11]) [fold] | Fold (KD) (VEGF-A [12]) [fold] | Fold (kdis) (VEGF-A [12]) [fold] | Fold (kon) (VEGF-A [12]) [fold] | Fold (KD) (PLGF [13]) [fold] | Fold (kdis) (PLGF [13]) [fold] | Fold (kon) (PLGF [13]) [fold] | further results
1 | B1 | 0.236 | 0.000746 | 3.16e+06 | 0.19 | 0.23 | 0.84 | 0.000152 | 483000 |  |  |  |  |  |  |  |  |  |  |  |  | IC50 (µg/ml), luciferase reporter, KDR/NFAT-RE HEK293 cells (VEGF-A [3]): 0.0519 µg/mL; Kd (VEGF-A [4]): 0.314 nM; Fold (KD) (PLGF [5]): 0.87 fold; Fold (kdis) (PLGF [5]): 0.33 fold; Fold (kon) (PLGF [5]): 2.61 fold
2 | B2 | 0.205 | 0.000248 | 1.21e+06 | 1 | 1 | 1 | 3.51e-05 | 578000 |  |  |  |  |  |  |  |  |  |  |  |  | Fold (KD) (PLGF [6]): 1 fold; Fold (kdis) (PLGF [6]): 1 fold; Fold (kon) (PLGF [6]): 1 fold; Fold (KD) (VEGF-A [7]): 1 fold; Fold (kdis) (VEGF-A [7]): 1 fold; Fold (kon) (VEGF-A [7]): 1 fold; Kd (PLGF [8]): 0.205 nM; koff (PLGF [8]): 0.000248 s⁻¹; kon (PLGF [8]): 1.21e+06 M⁻¹ s⁻¹; Kd (VEGF-A [9]): 0.0608 nM; koff (VEGF-A [9]): 3.51e-05 s⁻¹; kon (VEGF-A [9]): 578000 M⁻¹ s⁻¹; Fold (KD) (PLGF [5]): 1 fold; Fold (kdis) (PLGF [5]): 1 fold; Fold (kon) (PLGF [5]): 1 fold
3 | B3 | 0.174 | 0.000393 | 2.27e+06 | 1.62 | 1.34 | 1.21 | 2.63e-05 | 699000 |  |  |  |  |  |  |  |  |  |  |  |  | IC50 (µg/ml), luciferase reporter, KDR/NFAT-RE HEK293 cells (VEGF-A [3]): 0.0488 µg/mL; Kd (VEGF-A [4]): 0.0375 nM; Fold (KD) (PLGF [5]): 1.18 fold; Fold (kdis) (PLGF [5]): 0.63 fold; Fold (kon) (PLGF [5]): 1.87 fold
4 | B4 |  |  |  |  |  |  |  |  | 0.7 | 0.77 | 0.91 | 1.55 | 2.11 | 0.74 | 0.19 | 0.18 | 1.04 | 2.22 | 2.58 | 0.86 | 
5 | B5 |  |  |  |  |  |  |  |  | 0.95 | 0.83 | 1.15 | 2.26 | 1.72 | 1.31 | 0.26 | 0.19 | 1.31 | 3.23 | 2.1 | 1.54 | 
6 | B6 |  |  |  |  |  |  |  |  | 1.43 | 1.44 | 0.99 | 1.4 | 1.6 | 0.88 | 0.38 | 0.34 | 1.14 | 2.01 | 1.96 | 1.03 | 
7 | B7 |  |  |  |  |  |  |  |  | 0.3 | 0.16 | 1.89 | 2.98 | 1.43 | 2.08 | 0.08 | 0.04 | 2.16 | 4.26 | 1.75 | 2.43 | 
8 | B8 |  |  |  |  |  |  |  |  | 0.39 | 0.24 | 1.62 | 2.39 | 2.26 | 1.05 | 0.1 | 0.06 | 1.85 | 3.41 | 2.77 | 1.23 | 
9 | B9 |  |  |  |  |  |  |  |  |  |  |  |  |  |  |  |  |  |  |  |  | Fold (KD) (VEGF-A [14]): 0.23 fold; Fold (kdis) (VEGF-A [14]): 0.25 fold; Fold (kon) (VEGF-A [14]): 0.9 fold; Kd (PLGF [15]): 0.247 nM; koff (PLGF [15]): 0.000402 s⁻¹; kon (PLGF [15]): 1.63e+06 M⁻¹ s⁻¹; Kd (VEGF-A [16]): 0.267 nM; koff (VEGF-A [16]): 0.000139 s⁻¹; kon (VEGF-A [16]): 521000 M⁻¹ s⁻¹; Fold (KD) (PLGF [17]): 0.83 fold; Fold (kdis) (PLGF [17]): 0.62 fold; Fold (kon) (PLGF [17]): 1.34 fold
10 | B10 |  |  |  |  |  |  |  |  |  |  |  |  |  |  |  |  |  |  |  |  | Fold (KD) (PLGF [6]): 0.84 fold; Fold (kdis) (PLGF [6]): 0.44 fold; Fold (kon) (PLGF [6]): 1.9 fold; Fold (KD) (VEGF-A [7]): > 60.9 fold; Fold (kdis) (VEGF-A [7]): > 100 fold; Fold (kon) (VEGF-A [7]): 0.44 fold; Kd (PLGF [8]): 0.245 nM; koff (PLGF [8]): 0.000564 s⁻¹; kon (PLGF [8]): 2.31e+06 M⁻¹ s⁻¹; koff (VEGF-A [9]): < 1e-07 s⁻¹; kon (VEGF-A [9]): 257000 M⁻¹ s⁻¹
11 | B11 | 0.247 | 0.000402 | 1.63e+06 | 0.23 | 0.25 | 0.9 | 0.000139 | 521000 |  |  |  |  |  |  |  |  |  |  |  |  | Kd (VEGF-A [4]): 0.267 nM; Fold (KD) (PLGF [5]): 0.83 fold; Fold (kdis) (PLGF [5]): 0.62 fold; Fold (kon) (PLGF [5]): 1.34 fold

Changes are numbered by the printed parent chain. Numbers in names are those of the source.
